Measured values taken from PubChem BioAssay AID1159614 (National Center for Advancing Translational Sciences (NCATS), 2016).
Out of some 45,000 compounds screened, about 65 (0.1%) were called active. The call rests on the fitted dose curve; in most records, active means well fitted activation curve with a large enough effect; inconclusive means small, poorly fitted or top-dose-only effect; inactive means no such curve, though single readings can be large or run the other way. The list shows a part of the results.

biological target: Galactocerebrosidase (Homo sapiens) (UniProt P54803); assay: A Novel Cell-Based Assay to Identify Small Molecules for B -Galactocerebrosidase; conditions: 145M-Twi-hGALC-G270D cells (Twitcher mouse brain line with human GALC G270D), HMU-beta-Gal fluorescence, 48 h; series mostly up to 57.5 µM; activation: at the top concentration; further: 0% is about no effect; nearly all actives have a fitted effect of over 65% in size
Procedure, shortened: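 Live 145M-Twi cells (Twitcher mouse brain-derived, GALC-null) stably expressing human GALC-G270D, with a wild-type GALC line, were compound-treated. Residual GALC activity was then read as fluorescence from 0.1 mM final HMU-β-gal at pH 5.2; higher signal means activation.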

Chain of UniProt P54803 (P54803 whole entry, looked up): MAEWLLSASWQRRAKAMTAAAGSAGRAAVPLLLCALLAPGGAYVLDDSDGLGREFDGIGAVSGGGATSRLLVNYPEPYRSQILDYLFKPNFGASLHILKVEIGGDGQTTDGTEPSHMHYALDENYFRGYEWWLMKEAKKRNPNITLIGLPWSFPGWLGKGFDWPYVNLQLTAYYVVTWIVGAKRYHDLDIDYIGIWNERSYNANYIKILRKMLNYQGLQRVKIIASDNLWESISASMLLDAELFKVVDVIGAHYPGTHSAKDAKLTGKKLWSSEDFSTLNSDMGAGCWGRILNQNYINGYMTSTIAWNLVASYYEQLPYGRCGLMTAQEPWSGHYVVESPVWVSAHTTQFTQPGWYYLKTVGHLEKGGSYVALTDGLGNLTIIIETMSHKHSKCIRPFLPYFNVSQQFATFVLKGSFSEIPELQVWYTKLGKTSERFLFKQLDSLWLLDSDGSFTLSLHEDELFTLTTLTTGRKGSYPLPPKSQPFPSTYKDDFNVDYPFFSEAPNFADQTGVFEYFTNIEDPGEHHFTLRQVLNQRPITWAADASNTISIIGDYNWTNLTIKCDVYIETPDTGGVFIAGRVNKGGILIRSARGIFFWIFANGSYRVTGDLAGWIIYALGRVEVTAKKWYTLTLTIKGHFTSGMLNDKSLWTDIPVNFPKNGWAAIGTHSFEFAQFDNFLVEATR

activation, inactive:
COc1cccc2sc(N3CCN(C(=O)CCS(=O)(=O)c4ccc(F)cc4)CC3)nc12 -55.1%, CCCCN(CCN(CCCC)C(=O)N1CCOCC1)C(=O)N1CCOCC1 45.3%, Cc1ccc(CNC(=O)C(=O)NCC(c2cccnc2)N2CCN(c3ccccc3F)CC2)cc1 (stereo unspecified) -10.4%, Cc1ccsc1CN(C(=O)c1oc2ccccc2c1C)C1CCS(=O)(=O)C1 (stereo unspecified) -9.5%, Cc1ccc(C)c(Cn2c3ccccc3c3cnn(CC(=O)NC(C)c4ccccc4)c(=O)c32)c1 (stereo unspecified) -3.24%, COc1ccccc1CC(=O)Nc1ccc2nc(N3CCC(C)CC3)cc(C)c2c1 -15.2%, CS(=O)(=O)N1CCc2cc(C(=O)Nc3cccc(F)c3)ccc21 -17.3%, CCCCN1C(=O)C(O)(c2c(C)[nH]c3ccccc23)c2ccccc21 (stereo unspecified) -19.5%, CCCOc1ccccc1C1Oc2nc(SC)nnc2-c2ccccc2N1C(C)=O (stereo unspecified) -15.9%, COCCNC(=O)Cn1ncc2c(C)n(Cc3ccc(C)cc3)c(C)c2c1=O -6.55%, CCOC(=O)c1ccc(-c2ccc(/C=C(\C#N)C(=O)Nc3ccc(C)cc3OC)o2)cc1 -4.68%, N[C@@H](COP(=O)(O)O)C(=O)O -8.07% [at 23.8 µM], CCCNC(=O)CN1CCN(c2ncc(NC(=O)c3ccc(Cl)cc3)cc2C(=O)O)CC1 -8.1%, CC(C)(C)C(=O)OC1=CN(Cc2ccccc2)S(=O)(=O)c2ccccc21 -5.94%, CSc1ccc(C2c3c(oc4ccccc4c3=O)C(=O)N2CCCN2CCOCC2)cc1 (stereo unspecified) -21.2%, CCOc1ccc(C(=O)c2cn(Cc3ccc(F)cc3)c3ccc(F)cc3c2=O)cc1 -4.33%, Cc1ccc(C)c(CNC(=O)c2cnc3sc(N4CCCC4)nn3c2=O)c1 -10.9%, Cc1ccc(CN(Cc2ccco2)C(=O)c2oc3ccc(C)cc3c2C)cc1 -22.6%, Cc1cccc(-n2ncc3c(N4CCCCCC4)ncnc32)c1 -16.2%, Cc1cccc(N(C)C(=S)Oc2ccc3ccccc3c2)c1 -12.9%, O=S(=O)(c1ccccc1)c1nc(-c2ccc(F)cc2)oc1N1CCCCCC1 -15.9%, CCc1ccc(NC(=O)CSc2nc3ncccc3[nH]2)cc1 -8.38%, CCOc1ccc(/C=C/C(=O)Nc2sc3c(c2C(=O)OC)CCC3)cc1 19.4%, O=C(Nc1ccc2oc(-c3cccc(Cl)c3Cl)nc2c1)c1cccc(Br)c1 -21.7%, COc1cn(CC(=O)Nc2cc(C)ccc2C)c(CN2CCCCC2)cc1=O -9.74%, O=[N+]([O-])c1cc(-c2nc(-c3ccncc3)no2)ccc1NCc1ccccc1 7.76%, O=C(c1cn(CCOc2ccc(Cl)cc2)c2ccccc12)C1CCCCC1 -18.4%, CC(=O)Nc1cccc(NC(=O)CSc2cn(CC(=O)N3CCCCCC3)c3ccccc23)c1 -1.6%, CNC(=O)C1CCC(Cn2c(=O)c3sccc3n(CC(=O)Nc3cc(F)ccc3F)c2=O)CC1 (stereo unspecified) -9.28%, CCOC(=O)c1cccc(NC(=O)N2CCC(CN3CCCCCC3)CC2)c1 -1.48%, CC(=O)c1c(C)oc2ccc(N(C(=O)c3ccncc3)S(=O)(=O)c3ccc(C)cc3C)cc12 -6.44%, COc1ccccc1NC(=O)C1=C(C)Nc2nc(SCc3ccccc3Cl)nn2C1c1ccncc1 (stereo unspecified) -1.08%, CCN(CC)S(=O)(=O)c1ccc(C(=O)NCCSc2c(-c3ccc(OC)cc3)[nH]c3ccccc23)cc1 -7.74%, COc1ccc(NC(=O)CCSc2nc(-c3ccco3)cc(C(F)(F)F)n2)cc1OC -15.5%, CCc1ccc(OCCSc2nc(-c3cccc(C)c3)nc3cc(=O)[nH]n23)cc1 -15.2%, O=C(O)c1cccnc1 -4.77%, O=C(CN1C(=O)C2(SCC(=O)N2c2ccc(F)cc2)c2ccccc21)NCCc1ccccc1 (stereo unspecified) -15.6%, COc1ccc(NCc2nnc3n2CCCCC3)c(OC)c1 -5.98%, CCOc1ccc(C(=O)c2cn(CC(=O)Nc3cc(OC)ccc3OC)c3cc(OC)c(OC)cc3c2=O)cc1 -2.39%, COc1ccc(-c2ccc(=O)n(CC(=O)NCCc3ccccc3)n2)cc1 3.91%, CCOC(=O)C1CCN(C(c2ccc(F)cc2)c2sc3nc(-c4ccco4)nn3c2O)CC1 (stereo unspecified) -13.1%, CCOc1cc(CNCCSc2nnnn2-c2ccccc2)ccc1OC -11.6%, Cc1cc(C)c(NC(=O)C(C)n2nnc3sc(-c4ccccc4)cc3c2=O)c(C)c1 (stereo unspecified) -14.6%, Cc1cc(C)cc(Nc2cc(C(=O)NCc3ccccc3)c3ccccc3n2)c1 7.05%, CCOC(=O)c1cc(-c2ccc(F)cc2)n(CCC(=O)NC2CCCCC2)c1C -1.12%, CCCCc1oc2ccccc2c1C(=O)c1cc(I)c(OCCN(CC)CC)c(I)c1 -1.78%, Cc1cc(C)cc(Nc2nc3c(S(=O)(=O)c4cccc(Cl)c4)nnn3c3ccsc23)c1 -17.5%, CCOC(=O)c1cccc(NC(=O)c2cc3cc4ccc(C)cc4nc3s2)c1 -2%, CSc1ccc(CCNC(=O)c2cc3c(-c4ccccc4F)nn(C)c3s2)cc1 -13.8%, Cc1cccc(NC(=O)Cn2c(=O)n(CCC(=O)N3CCc4ccccc4C3)c(=O)c3ccccc32)c1 2.22%, Nc1c(C(=O)NCc2ccccc2)nnn1Cc1cccc(Br)c1 -13.2%, CCOc1ccc(NC(=O)NCCN2CCN(c3ccccc3F)CC2)cc1 -8.84%, CC(=O)Nc1ccc(C(=O)CSc2nnc3ccc4ccccc4n23)cc1 -4.77%, CCOC(=O)c1cc2c(=O)n3ccccc3nc2n(C)c1=NC(=O)c1cc2ccccc2o1 -5.5%, Cc1ccc2c(c1)c1c(c(=O)n(-c3ccccc3C)c(=O)n1CC(=O)NCC1CCCO1)n2C (stereo unspecified) -2.52%, Cc1cc(=O)n2nc(N3CCC(C(=O)Nc4ccc(Br)cc4F)CC3)sc2n1 -8.53%, COc1cccc(NC(=O)c2ccc(-c3nc(COc4ccc(C)cc4)c(C)o3)cc2)c1 -21.4%, O=C(CNC(=O)c1ccc(Cl)cc1)OCc1cc(=O)n2nc(C3CCCCC3)sc2n1 -3.18%, Nc1c(C(=O)Nc2ccc(Br)cc2)sc2nc(-c3ccncc3)ccc12 -28.5%, Cc1ccc(C)c(NC(=O)CCCN2C(=O)C(c3ccccc3)Oc3cccnc32)c1 (stereo unspecified) -15.6%, CC(C)(C)c1nnc(NS(=O)(=O)c2ccccc2)s1 -16.9%, COc1ccc(S(=O)(=O)N(CC(=O)Nc2cccc(C)c2)c2ccc(C)cc2)cc1OC 2.91%, Cc1cc(C)c(NC(=O)CSc2nc(-c3ccc(F)cc3)nc3c2Cc2c(CO)cnc(C)c2O3)c(C)c1 -4.71%, CCCCCCCCCCCC(=O)[O][Sn]([CH2]CCC)([CH2]CCC)[O]C(=O)CCCCCCCCCCC -14%, COc1ccc(N2CCN(c3ccc(-c4nc(-c5cccc(C)c5)no4)cc3[N+](=O)[O-])CC2)cc1 -13.2%, O=C(NCCC1=CCCCC1)c1ccc2c(c1)N(Cc1cccc(Cl)c1)C(=O)c1ccccc1S2(=O)=O -7.46%, CCCCSCCCNC(=O)C1CCN(Cc2nc(-c3cccc(Br)c3)oc2C)CC1 -12%, CCOC(=O)C1=C(CN(CC)Cc2ccccc2)NC(=O)NC1c1ccc(OC(C)C)cc1 (stereo unspecified) -17%, COc1ccccc1CNC(=O)c1ccc(N2CCCC2)c(NC(=O)NCc2ccc(F)cc2)c1 -8.12%, CC(C)CN(CCCNC(=O)CN1N=C(c2ccccc2)CCC1=O)CC(C)C -17.7%, CCOc1ccc(CCNC(=O)c2[nH]c3cc(OC)ccc3c2Sc2ccccc2)cc1OCC -11.2%, O=C(Cn1ncc2c3ccccc3n(Cc3ccccc3F)c2c1=O)N1CCCCC1 -15.7%, CC(C)c1ccc(NC(=O)CCNS(=O)(=O)c2ccc3c(c2)CCCC(=O)N3)cc1 -5.55%, CCOC(=O)CC(NC(=O)CCc1c(C)nc2ncnn2c1C)c1ccc(OC(C)C)cc1 (stereo unspecified) 5.62%, CCOc1ccc(NC(=O)Cn2c(=O)cc(C)c3c(C)nn(-c4cccc(Cl)c4C)c32)cc1 -11.7%, CCOc1ccc(S(=O)(=O)c2cn(Cc3ccc(OC)cc3)c3ccc(F)cc3c2=O)cc1 -17.1%, Cn1c(=O)[nH]c(=O)c2c1nc1n2CCN1c1ccccc1 2.12%, CCOc1ccc(C(=O)N2CCN(CCc3ccccn3)CC2)cc1 -8.06%, Cc1ccc(N2CCN(S(=O)(=O)c3nnc(NC(=O)c4ccc(C(C)C)cc4)s3)CC2)cc1 -13.8%, Cc1ccc(-c2nc(S(=O)(=O)c3ccc(C)cc3)c(N3CCCCCC3)o2)cc1 4.68%, CCOc1ccc(Nc2nc(C)c(NC(=O)c3cccc(OC)c3)c(Nc3ccc(OCC)cc3)n2)cc1 -40.8%, Cc1ccccc1CSc1nc2cccnc2n1Cc1ccc(C(=O)NC2CC2)cc1 4.86%, CCOC(=O)c1ccccc1NC(=O)CSc1cn(CC(=O)N2CCOCC2)c2ccccc12 5.34%, COc1ccc(CNC(=O)C2CCC(CNS(=O)(=O)c3cccs3)CC2)cc1 (stereo unspecified) -3.68%, CCOc1ccc(NC(=O)CN2C(C(=O)OC)=C(c3ccccc3)c3cc(Cl)ccc3S2(=O)=O)cc1 -9.89%, COC(=O)C1=C(c2ccccc2)c2ccccc2S(=O)(=O)N1CC(=O)Nc1ccc(OC)cc1OC -3.35%, Cc1cc(=O)[nH]c2nnc(SCc3ccc(Cl)cc3)n12 -16.3%, Cc1ccc(Cl)cc1-n1ncc2c(N3CCC(C)CC3)ncnc21 -25.9%, Cc1ccc(CNC(=O)CN2CCN(Cc3ccc(F)cc3)C2=O)cc1 -13.8%, Cc1cc2nc(-c3cccc(NC(=O)COc4ccc(Cl)c(C)c4)c3)oc2cc1C -6.37%, Cc1cccc(N(C)S(=O)(=O)c2c(C(=O)N3CCCCCC3)c(C)n(C)c2C)c1 0.706%, O=C(NCc1ccccc1)C1CCN(S(=O)(=O)c2ccc3[nH]c(=O)ccc3c2)CC1 -16%, COc1ccc(NC(=O)c2c(NCc3cccc(F)c3)sc3c2CCCC3)c(OC)c1 -20.1%, COc1ccccc1NC(=O)C1CCN(S(=O)(=O)c2cn(C)cn2)CC1 -21.9%, COc1ccccc1-c1cc(NC(=O)COc2ccc(C)c(C)c2)n(-c2ccccc2)n1 -8.41%, COc1ccc(OC)c(NC(=O)CN2CCCN(Cc3cc(C)ccc3C)S2(=O)=O)c1 -10.4%
